# Some of the results follow.
# Columns and labels:
# Assay in all cases: glycan array binding signal (z-score within array); higher = stronger binding
# Settings in all cases: glycan notation: IUPAC condensed, linker removed
# [1] = target: Gal(b1-4)GlcNAc(b1-3)Gal(b1-4)GlcNAc(b1-6)[Gal(b1-3)]GalNAc
# How it was run: (§1)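 Glycan array data came from 3228 arrays in the Consortium for Functional Glycomics database, and only arrays with an available protein sequence were kept. Glycan names were put into IUPAC-condensed notation, and columns mapping to the same glycan were averaged. The binding signal is a within-array Z-score, averaged across arrays of one protein sequence run at different concentrations or buffers and across linkers. A negative Z-score can be read as non-binding.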
# [2] = target: Gal(b1-4)GlcNAc(b1-3)Gal(b1-4)[Fuc(a1-3)]GlcNAc(b1-3)Gal(b1-4)[Fuc(a1-3)]GlcNAc
# How it was run: as §1
# [3] = target: Gal(b1-4)GlcNAc(b1-3)GalNAc
# How it was run: as §1
# [4] = target: Gal(b1-4)GlcNAc(b1-3)[Fuc(a1-3)GlcNAc(b1-6)]Gal(b1-4)Glc
# How it was run: as §1
# [5] = target: Gal(b1-4)GlcNAc(b1-3)[Gal(b1-4)GlcNAc(b1-6)]Gal(b1-4)GlcNAc
# How it was run: as §1
# [6] = target: Gal(b1-4)GlcNAc(b1-3)[GlcNAc(b1-6)]Gal(b1-4)GlcNAc
# How it was run: as §1
# [7] = target: Gal(b1-4)GlcNAc(b1-6)Gal(b1-4)GlcNAc
# How it was run: as §1
# [8] = target: Gal(b1-4)GlcNAc(b1-6)GalNAc
# How it was run: as §1
# [9] = target: Gal(b1-4)GlcNAc(b1-6)[Gal(b1-3)]GalNAc
# How it was run: as §1
# [10] = target: Gal(b1-4)GlcNAc(b1-6)[Gal(b1-4)GlcNAc(b1-3)]GalNAc
# How it was run: as §1
# Gal(b1-4)GlcNAc6P = target: Gal(b1-4)GlcNAc6P
# How it was run: as §1
# Gal(b1-6)Gal = target: Gal(b1-6)Gal
# How it was run: as §1
# Gal3S(b1-3)GalNAc = target: Gal3S(b1-3)GalNAc
# How it was run: as §1
# Gal3S(b1-3)GlcNAc = target: Gal3S(b1-3)GlcNAc
# How it was run: as §1
# [11] = target: Gal3S(b1-3)[Fuc(a1-4)]GlcNAc
# How it was run: as §1
# Gal3S(b1-4)Glc = target: Gal3S(b1-4)Glc
# How it was run: as §1
# Gal3S(b1-4)Glc6S = target: Gal3S(b1-4)Glc6S
# How it was run: as §1
# Gal3S(b1-4)GlcNAc = target: Gal3S(b1-4)GlcNAc
# How it was run: as §1
# [12] = target: Gal3S(b1-4)[Fuc(a1-3)]Glc6S
# How it was run: as §1
# [13] = target: Gal3S(b1-4)[Fuc(a1-3)]GlcNAc
# How it was run: as §1
# [14] = target: Gal3S(b1-4)[Fuc(a1-3)]GlcNAc6S
# How it was run: as §1
# Gal3S4S(b1-4)GlcNAc = target: Gal3S4S(b1-4)GlcNAc
# How it was run: as §1
# Gal3S6S(b1-4)GlcNAc = target: Gal3S6S(b1-4)GlcNAc
# How it was run: as §1
# Gal3S6S(b1-4)GlcNAc6S = target: Gal3S6S(b1-4)GlcNAc6S
# How it was run: as §1
# Gal4S(b1-4)GlcNAc = target: Gal4S(b1-4)GlcNAc
# How it was run: as §1
# Gal4S6S(b1-4)GlcNAc = target: Gal4S6S(b1-4)GlcNAc
# How it was run: as §1
# Gal6P(b1-4)GlcNAc = target: Gal6P(b1-4)GlcNAc
# How it was run: as §1
# Gal6S(b1-3)GlcNAc = target: Gal6S(b1-3)GlcNAc
# How it was run: as §1
# Gal6S(b1-3)GlcNAc6S = target: Gal6S(b1-3)GlcNAc6S
# How it was run: as §1
# Gal6S(b1-4)Glc = target: Gal6S(b1-4)Glc
# How it was run: as §1
# Gal6S(b1-4)Glc6S = target: Gal6S(b1-4)Glc6S
# How it was run: as §1
# Gal6S(b1-4)GlcNAc = target: Gal6S(b1-4)GlcNAc
# How it was run: as §1
# Gal6S(b1-4)GlcNAc6S = target: Gal6S(b1-4)GlcNAc6S
# How it was run: as §1
# GalNAc(a1-3)Gal = target: GalNAc(a1-3)Gal
# How it was run: as §1
# GalNAc(a1-3)GalNAc = target: GalNAc(a1-3)GalNAc
# How it was run: as §1
# [15] = target: GalNAc(a1-3)GalNAc(b1-3)Gal(a1-4)Gal(b1-4)Glc
# How it was run: as §1
# [16] = target: GalNAc(a1-3)GalNAc(b1-3)Gal(a1-4)Gal(b1-4)GlcNAc
# How it was run: as §1
# GalNAc(b1-3)Gal = target: GalNAc(b1-3)Gal
# How it was run: as §1
# [17] = target: GalNAc(b1-3)Gal(a1-4)Gal(b1-4)GlcNAc
# How it was run: as §1
# [18] = target: GalNAc(b1-3)Gal(a1-4)Gal(b1-4)GlcNAc(b1-3)Gal(b1-4)Glc
# How it was run: as §1
# [19] = target: GalNAc(b1-3)Gal(a1-6)Gal(b1-4)Glc
# How it was run: as §1
# GalNAc(b1-3)GalNAc = target: GalNAc(b1-3)GalNAc
# How it was run: as §1
# GalNAc(b1-3)GlcNAc = target: GalNAc(b1-3)GlcNAc
# How it was run: as §1
# GalNAc(b1-4)Gal(b1-4)Glc = target: GalNAc(b1-4)Gal(b1-4)Glc
# How it was run: as §1
# GalNAc(b1-4)GlcNAc = target: GalNAc(b1-4)GlcNAc
# How it was run: as §1
binder,measurement,setting,value
PfulAvr4 2 (Pseudocercospora fuligena) (protein) HHHHHHDYKDDDDKAKPIKPFACPPKDFTTTKCQGPVDCLYANPLSCLGYIQCVCDDDACSTATPYAKSCPTGLAWVEKLKRCDGIKKSACPKKMYEGS,glycan array binding signal (z-score),[1],0.036
same,glycan array binding signal (z-score),[2],-0.28
same,glycan array binding signal (z-score),[3],-0.202
same,glycan array binding signal (z-score),[4],-0.302
same,glycan array binding signal (z-score),[5],-0.411
same,glycan array binding signal (z-score),[6],5.97
same,glycan array binding signal (z-score),[7],-0.246
same,glycan array binding signal (z-score),[8],-0.217
same,glycan array binding signal (z-score),[9],0.263
same,glycan array binding signal (z-score),[10],-0.229
same,glycan array binding signal (z-score),Gal(b1-4)GlcNAc6P,-0.085
same,glycan array binding signal (z-score),Gal(b1-6)Gal,-0.333
same,glycan array binding signal (z-score),Gal3S(b1-3)GalNAc,0.098
same,glycan array binding signal (z-score),Gal3S(b1-3)GlcNAc,-0.314
same,glycan array binding signal (z-score),[11],-0.025
same,glycan array binding signal (z-score),Gal3S(b1-4)Glc,-0.127
same,glycan array binding signal (z-score),Gal3S(b1-4)Glc6S,-0.075
same,glycan array binding signal (z-score),Gal3S(b1-4)GlcNAc,-0.22
same,glycan array binding signal (z-score),[12],-0.272
same,glycan array binding signal (z-score),[13],0.108
same,glycan array binding signal (z-score),[14],0.222
same,glycan array binding signal (z-score),Gal3S4S(b1-4)GlcNAc,-0.378
same,glycan array binding signal (z-score),Gal3S6S(b1-4)GlcNAc,-0.207
same,glycan array binding signal (z-score),Gal3S6S(b1-4)GlcNAc6S,-0.34
same,glycan array binding signal (z-score),Gal4S(b1-4)GlcNAc,-0.417
same,glycan array binding signal (z-score),Gal4S6S(b1-4)GlcNAc,-0.372
same,glycan array binding signal (z-score),Gal6P(b1-4)GlcNAc,-0.344
same,glycan array binding signal (z-score),Gal6S(b1-3)GlcNAc,-0.37
same,glycan array binding signal (z-score),Gal6S(b1-3)GlcNAc6S,0.027
same,glycan array binding signal (z-score),Gal6S(b1-4)Glc,-0.235
same,glycan array binding signal (z-score),Gal6S(b1-4)Glc6S,-0.383
same,glycan array binding signal (z-score),Gal6S(b1-4)GlcNAc,-0.285
same,glycan array binding signal (z-score),Gal6S(b1-4)GlcNAc6S,-0.361
same,glycan array binding signal (z-score),GalNAc(a1-3)Gal,-0.345
same,glycan array binding signal (z-score),GalNAc(a1-3)GalNAc,-0.253
same,glycan array binding signal (z-score),[15],-0.301
same,glycan array binding signal (z-score),[16],-0.251
same,glycan array binding signal (z-score),GalNAc(b1-3)Gal,-0.265
same,glycan array binding signal (z-score),[17],-0.178
same,glycan array binding signal (z-score),[18],-0.24
same,glycan array binding signal (z-score),[19],-0.38
same,glycan array binding signal (z-score),GalNAc(b1-3)GalNAc,-0.221
same,glycan array binding signal (z-score),GalNAc(b1-3)GlcNAc,-0.272
same,glycan array binding signal (z-score),GalNAc(b1-4)Gal(b1-4)Glc,0.532
same,glycan array binding signal (z-score),GalNAc(b1-4)GlcNAc,-0.27
